{"source": "the supplement of paper PMC3334620", "note": "Over roughly 33,000 sequences, “E-score (-0.5 to 0.5)” has its median near -0.036; the highest 2% begin near 0.37. This is one part of the list."}
{"target": "T1, Yer064c (UniProt P40041)", "T1 sequence": "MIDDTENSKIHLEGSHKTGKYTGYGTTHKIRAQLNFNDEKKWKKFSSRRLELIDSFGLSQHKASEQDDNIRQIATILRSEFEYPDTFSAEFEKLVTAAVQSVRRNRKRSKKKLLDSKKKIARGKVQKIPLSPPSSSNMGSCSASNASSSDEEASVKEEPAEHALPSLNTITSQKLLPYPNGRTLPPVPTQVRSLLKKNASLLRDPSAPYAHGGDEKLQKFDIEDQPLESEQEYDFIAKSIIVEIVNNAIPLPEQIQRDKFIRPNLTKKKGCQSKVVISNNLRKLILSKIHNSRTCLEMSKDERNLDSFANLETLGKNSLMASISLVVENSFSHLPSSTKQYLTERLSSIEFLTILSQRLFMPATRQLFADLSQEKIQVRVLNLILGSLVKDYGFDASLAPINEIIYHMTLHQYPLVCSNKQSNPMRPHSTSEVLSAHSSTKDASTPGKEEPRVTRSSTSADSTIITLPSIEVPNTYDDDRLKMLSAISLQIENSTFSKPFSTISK", "test": "PBM E-score (8-mer binding enrichment) (E-score (-0.5 to 0.5)); higher = stronger / more preferred TF binding; most listed sequences are background and not binding sites", "conditions": "protein concentration: 200 nM; construct: GST-full length", "outline": "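E-scores (a modified Wilcoxon-Mann-Whitney statistic) were assigned by the Universal PBM Analysis Suite to every ungapped eight-base word pooled with its reverse complement. The input came from universal all-10-mer Agilent arrays made double-stranded by primer extension and probed with GST-tagged yeast transcription factors at about 100-200 nM. Fluorescent anti-GST detected bound protein, and masliner normalised the scans.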"}
{"sequence": "CGCTATTA", "PBM E-score": -0.133}
{"sequence": "CTGGGGTC", "PBM E-score": -0.0281}
{"sequence": "GACATCTC", "PBM E-score": -0.139}
{"sequence": "AAGAGGTA", "PBM E-score": -0.128}
{"sequence": "TATGCGAA", "PBM E-score": -0.0756}
{"sequence": "AACGCTTA", "PBM E-score": -0.183}
{"sequence": "CGTTGTAG", "PBM E-score": 0.0306}
{"sequence": "CTTAGGCA", "PBM E-score": -0.0418}
{"sequence": "ACCGTCAC", "PBM E-score": -0.154}
{"sequence": "CTTGGCTA", "PBM E-score": 0.0632}
{"sequence": "CCCAGGAA", "PBM E-score": -0.148}
{"sequence": "CCACCCTC", "PBM E-score": 0.0436}
{"sequence": "ATTCGAAT", "PBM E-score": 0.216}
{"sequence": "GAAGACGA", "PBM E-score": 0.0461}
{"sequence": "ACGTTGCA", "PBM E-score": -0.0905}
{"sequence": "ATGCCGAA", "PBM E-score": -0.0487}
{"sequence": "ACTATTTG", "PBM E-score": 0.113}
{"sequence": "AGTGGACG", "PBM E-score": -0.00071}
{"sequence": "GACCCCGC", "PBM E-score": -0.341}
{"sequence": "AACCTGTA", "PBM E-score": -0.0552}
{"sequence": "GTAACTAC", "PBM E-score": -0.0408}
{"sequence": "AAATCTCT", "PBM E-score": -0.078}
{"sequence": "CGACAGAC", "PBM E-score": -0.11}
{"sequence": "CGGAGGCA", "PBM E-score": -0.261}
{"sequence": "ATTCCGAC", "PBM E-score": -0.0115}
{"sequence": "CGAAGCCA", "PBM E-score": 0.0935}
{"sequence": "AGGTACAA", "PBM E-score": 0.0966}
{"sequence": "AACCACAA", "PBM E-score": 0.0761}
{"sequence": "GCGCCTTA", "PBM E-score": -0.26}
{"sequence": "AGCAATTA", "PBM E-score": 0.0476}
{"sequence": "AATGACTG", "PBM E-score": 0.441}
{"sequence": "GGTGAACA", "PBM E-score": -0.164}
{"sequence": "AACTGAGG", "PBM E-score": 0.0189}
{"sequence": "ACGTTCCA", "PBM E-score": -0.289}
{"sequence": "ACGCAATC", "PBM E-score": 0.162}
{"sequence": "CCTGGACG", "PBM E-score": -0.185}
{"sequence": "AACTAGGT", "PBM E-score": 0.0276}
{"sequence": "CTATCAGC", "PBM E-score": 0.0186}
{"sequence": "CCATTGAA", "PBM E-score": 0.077}
{"sequence": "GGATCGTA", "PBM E-score": -0.118}
{"sequence": "GTCGGCTA", "PBM E-score": 0.0779}
{"sequence": "GAGGGATA", "PBM E-score": -0.246}
{"sequence": "CTAACCCC", "PBM E-score": -0.237}
{"sequence": "GGATCTAA", "PBM E-score": -0.00574}
{"sequence": "ATTACGTG", "PBM E-score": 0.0436}
{"sequence": "CGCTTACG", "PBM E-score": -0.013}
{"sequence": "ACACTCCA", "PBM E-score": -0.0373}
{"sequence": "AACCAGTC", "PBM E-score": 0.171}
{"sequence": "AGGCGTGG", "PBM E-score": -0.202}
{"sequence": "CCAAGCAG", "PBM E-score": -0.0695}
{"sequence": "AACTAGCG", "PBM E-score": -0.119}
{"sequence": "AATCTGTG", "PBM E-score": -0.0718}
{"sequence": "CTCATGAC", "PBM E-score": 0.381}
{"sequence": "AGACGGCG", "PBM E-score": -0.126}
{"sequence": "AGTCTTTA", "PBM E-score": 0.341}
{"sequence": "AGTATCAT", "PBM E-score": 0.133}
{"sequence": "TACGGGCA", "PBM E-score": -0.0961}
{"sequence": "ATAGATAG", "PBM E-score": 0.0918}
{"sequence": "ACGCACAT", "PBM E-score": -0.00395}
{"sequence": "CCAAGACA", "PBM E-score": -0.0421}
{"sequence": "CTCGCGAC", "PBM E-score": 0.0585}
{"sequence": "AGCTGGAA", "PBM E-score": -0.105}
{"sequence": "CTTGACTA", "PBM E-score": 0.435}
{"sequence": "ACACGTCA", "PBM E-score": 0.00607}
{"sequence": "ATTCCTCA", "PBM E-score": 0.104}
{"sequence": "CCGAAACA", "PBM E-score": -0.0615}
{"sequence": "ACGCATAA", "PBM E-score": -0.00233}
{"sequence": "ACACATTA", "PBM E-score": 0.228}
{"sequence": "GCCACTAC", "PBM E-score": -0.145}
{"sequence": "AGCCCTGG", "PBM E-score": -0.285}
{"sequence": "GGCCCTCA", "PBM E-score": -0.237}
{"sequence": "GGCACGTA", "PBM E-score": -0.174}
{"sequence": "AGTCGGAG", "PBM E-score": 0.245}
{"sequence": "ATACGGGG", "PBM E-score": -0.128}
{"sequence": "CTTTCGAC", "PBM E-score": -0.0335}
{"sequence": "GCAACGGC", "PBM E-score": -0.175}
{"sequence": "AAACTGGC", "PBM E-score": -0.074}
{"sequence": "ATCAGAAC", "PBM E-score": 0.127}
{"sequence": "CCTTGCGA", "PBM E-score": -0.131}
{"sequence": "AGGGGGTA", "PBM E-score": -0.235}
{"sequence": "AGCTGGCA", "PBM E-score": -0.216}
{"sequence": "ATTATACC", "PBM E-score": 0.106}
{"sequence": "TGACCCAA", "PBM E-score": 0.222}
{"sequence": "CTCTAGTC", "PBM E-score": 0.313}
{"sequence": "ATATTGCA", "PBM E-score": -0.082}
{"sequence": "TAGCCAAA", "PBM E-score": 0.0577}
{"sequence": "AGTGCATG", "PBM E-score": -0.00556}
{"sequence": "GCCTTCAA", "PBM E-score": -0.0385}
{"sequence": "ATATCGCC", "PBM E-score": 0.0619}
{"sequence": "CAACCGTC", "PBM E-score": -0.198}
{"sequence": "ACTTTCAC", "PBM E-score": 0.161}
{"sequence": "AACACACT", "PBM E-score": 0.0687}
{"sequence": "CCTAGCGC", "PBM E-score": -0.0308}
{"sequence": "ACAAAGCT", "PBM E-score": -0.0467}
